Laboratory results taken from article PMC5779226.
Results are given in words; binding and its absence hold for the method and conditions named. In cells and extracts the contact can be indirect. Some entries that bind do so weakly or less than the wild type. For some assays here: Tags and fused reporters may be left off the sequences shown. One block for each molecule: values may come before it.

By UniProt entry, the sequences of proteins in these tests, tags left out.
UniProt P21187: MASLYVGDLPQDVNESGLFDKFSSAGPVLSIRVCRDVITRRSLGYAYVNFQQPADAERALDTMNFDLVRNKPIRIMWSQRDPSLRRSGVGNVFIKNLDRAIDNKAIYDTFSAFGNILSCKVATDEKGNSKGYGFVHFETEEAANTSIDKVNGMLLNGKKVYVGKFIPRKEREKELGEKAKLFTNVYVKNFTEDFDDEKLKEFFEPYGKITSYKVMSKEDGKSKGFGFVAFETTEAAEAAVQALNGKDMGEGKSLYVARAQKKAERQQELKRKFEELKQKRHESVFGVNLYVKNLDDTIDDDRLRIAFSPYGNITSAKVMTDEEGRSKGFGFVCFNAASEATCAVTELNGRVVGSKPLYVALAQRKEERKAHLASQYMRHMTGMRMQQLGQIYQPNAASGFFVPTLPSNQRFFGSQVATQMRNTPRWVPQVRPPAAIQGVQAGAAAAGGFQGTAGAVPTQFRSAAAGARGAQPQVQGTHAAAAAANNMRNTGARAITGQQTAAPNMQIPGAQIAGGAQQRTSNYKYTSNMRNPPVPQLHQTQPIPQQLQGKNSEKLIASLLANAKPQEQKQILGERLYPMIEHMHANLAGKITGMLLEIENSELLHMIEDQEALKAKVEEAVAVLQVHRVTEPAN

Legend:
[1] = biological target: T1, eGFP-ME31B (transfected in S2 cells) (Drosophila) (UniProt P23128); assay: co-IP; S2 cells transfected with eGFP-ME31B (control FLAG-eGFP), anti-GFP antibodies on protein G beads; western blot
T1 sequence: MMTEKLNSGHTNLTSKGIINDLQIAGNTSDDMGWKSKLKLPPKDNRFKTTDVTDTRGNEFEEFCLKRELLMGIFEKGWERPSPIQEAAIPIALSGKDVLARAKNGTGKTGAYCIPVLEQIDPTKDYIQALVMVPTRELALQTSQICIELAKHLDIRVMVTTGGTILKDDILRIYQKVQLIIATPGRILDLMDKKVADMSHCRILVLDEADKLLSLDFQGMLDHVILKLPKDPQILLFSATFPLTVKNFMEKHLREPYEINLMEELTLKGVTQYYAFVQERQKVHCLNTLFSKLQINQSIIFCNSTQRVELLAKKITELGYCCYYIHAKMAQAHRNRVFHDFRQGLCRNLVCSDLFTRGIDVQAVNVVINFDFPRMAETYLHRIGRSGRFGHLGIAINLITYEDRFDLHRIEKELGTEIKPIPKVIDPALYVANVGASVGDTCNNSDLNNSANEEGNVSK

[2] = biological target: T2, eIF4E (D. melanogaster (endogenous in S2 cells and embryos)) (UniProt P48598); assay: pull-down; S2 cell lysate on m7GDP-conjugated agarose beads (holds eIF4E by its cap analog), blank agarose beads as control, 3 hr at 4°C; western blot
T2 sequence: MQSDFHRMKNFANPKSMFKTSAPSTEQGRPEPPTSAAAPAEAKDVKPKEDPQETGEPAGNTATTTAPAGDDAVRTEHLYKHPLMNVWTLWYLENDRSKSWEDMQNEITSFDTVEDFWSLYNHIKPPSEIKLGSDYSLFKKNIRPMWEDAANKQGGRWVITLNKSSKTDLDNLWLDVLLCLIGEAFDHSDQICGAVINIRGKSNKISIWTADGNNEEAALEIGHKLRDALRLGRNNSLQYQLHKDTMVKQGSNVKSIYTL

[3] = biological target: T2, eIF4E (D. melanogaster (endogenous in S2 cells and embryos)); assay: pull-down; 0-1 hr embryo lysate on m7GDP-conjugated agarose beads (holds eIF4E by its cap analog), blank agarose beads as control, 3 hr at 4°C; western blot
[4] = biological target: PABP (D. melanogaster (endogenous in S2 cells and embryos)) (UniProt P21187); assay: co-IP; 1-2 hr wild-type embryo extracts, anti-PABP Fab (control C1); western blot
[5] = biological target: PABP (D. melanogaster (endogenous in S2 cells and embryos)) (UniProt P21187); assay: co-IP; png^50 embryo extracts at 0-1, 2-3 and 4-5 hr, anti-PABP Fab (control C1); western blot
[6] = biological target: PABP (D. melanogaster (endogenous in S2 cells and embryos)) (UniProt P21187); assay: co-IP; wild-type embryo extracts from 2-3 hr onwards (to 4-5 hr), anti-PABP Fab (control C1); western blot
[7] = biological target: T3, eGFP-ME31B (trap line embryos) (D. melanogaster (trap line embryos)) (UniProt P23128); assay: co-IP; 0-1 hr eGFP-ME31B trap line embryo extracts, anti-GFP antibodies (control rabbit IgG) on protein G beads; western blot; also with or without RNase A on the beads
T3 sequence: T1 sequence

[8] = biological target: PABP (D. melanogaster (endogenous in S2 cells and embryos)) (UniProt P21187); assay: co-IP; 0-1 hr embryo extracts, anti-PABP or anti-eIF4G Fabs (control C1) on anti-FLAG beads, 2-3 hr at 4°C, six washes; western blot; also with or without RNase A on the beads
[9] = biological target: PABP (D. melanogaster (endogenous in S2 cells and embryos)) (UniProt P21187); assay: co-IP; S2 cell extracts, anti-PABP or anti-eIF4G Fabs (control C1) on anti-FLAG beads, 2-3 hr at 4°C, six washes; western blot

- binding [1]: no binding
- binding [2]: binds
- binding [3]: binds
Molecule: PABP (from UniProt P21187 1-634)

- binding [1]: binds
B1: Enhancer of decapping 3 (EDC3) (protein, UniProt Q9VVI2 1-680)
chain: MGPTDQDWIGCAVSIACDEVLGVFQGLIKQISAEEITIVRAFRNGVPLRKQNAEVVLKCTDIRSIDLIEPAKQDLDGHTAPPPVVNKPTPVKLPHFSNILGKQQQLQLQQQQQQLQLQQQQKQQFQEQEREQDLPSTPRSRANDNGRVAAGGASSSSGPRGNFNSALSDKMHQLKLIETNGSNGTLRTPQTSRASSAQQQPQISTTPNSVAAFFGNMIPPKVEVKLGSYVSNTRESYCSSSGDSGEATGLSLGSSKPIDIVSNGDGFYKQTAASSYGNTNGNVRRNGNANNNGNGTGNGSYTNGNGNGNGKNKRNRVRRESSMRQQQVQLTFGSEADDPLIHEDFDFEGNLALFDKQAIWDDIESTTQKPDVVRHIVNNHHHKPEQKYRHDENILASKPLQLRQIESMFGGSQDFVTDDGLIIPTIPAYVRNKIEISADKAGLSLQRQIDILARGASDLAITLLGGARRLTPANNHQWPKIAIICDGGKNMRTINIGAATGRQLASHGLTVLLYVEQAKLLEQNSSSPEISLFKATDNVIVHSVDALPTPDLVILSTNTANLSDAIRKWLSVNRASVLAIDPPPCGINEVAIKYSILPILPLNGISTATTSSSSSAAATPTPIASTSAAASATKSAASTNNCGKLYLCNLGIPDKFYRDCGIKYKSPYGHKYVIPIHSKD

Further lines, the molecule ahead of its results:

B2: Cup (protein, UniProt Q9VMA3 1-1117)
chain: MQMAEAEQENGAGALKIATNAGATDRPAHQQLPLPVEDQQDEVLTPAEKGKFEYPPPPPPPTPVQAPLATKATALNASQEHDDDEANSEKWEDPCAPPPPPPLPTSAFLATGLGYLKLPAFKLKDALEKAITKLEANKRTLKASPESSRSIKNKNVVALEMLPRRSNPETIGDGSMLASTSTAVMLQTKKPAVIVEMERRCKIINLLAKQNQILESISGEAIPMHGPSKHLHEDEGLTLQVLSARASTPYTQPSSMLSCTAVSCDLEHDSPRKQVASKEAVPEQQSSQVQQKRPPSTGIHKPGSLRAPKAVRPTTAPVVSSKPVKSYTRSRLMDIRNGMFNALMHRSKESFVMPRIATCDDIELEGRLRRMNIWRTSDGTRFRTRSTTANLNMNNNNNNECMPAFFKNKNKPNLISDESIIQSQPPQPQTEFQDPAIVNQRRIGSGRLNHSKWGYNDEDYHSYHNGKSQHMEEVNSKNSKNMTVLQFFDNGEISSQPQRRPNTPVMGMSINRSENDTLHSNESSEDLSRANENYVKRVMSGFLVVSKPKSRDVEDRHHRRYRNQNEEPEWFSCGPTSRLDTIELCGFDEDEEKMLKEGNKNHGLGETERETSKQKMDHKYKWTHAEPMGRSKYMPKHDTNNNHNVENMNNVMATEHQQQKEEKRPGSGRSFQFDKFNQSQQNYESSSYVNHQQPPQTQPQQMQQQSNTNTNNSKFMSFFANEGNSSSSSLNEFFKQAINQGHGNNPEQPKSLGHIGQMPSVDQLEAKWRRNSLNNVGETANKQTDNFQKLIGSLSSAKPQSQAVGYDAISNFIMQQQQYQQQQQKQHLIIQQQQQHTAFLASLQLKAILGRADTQLLLLRLTKGEISKHGLLVQLANPRLTDMDREAITAVLQFTNTQQQQQQHKQQLDMLSSTVIASQLQNLHNLAIVQQTLAARQQPQHNPQTQAPHQLSQEDLQAHANVIMRNAVMKRKIEEQTSKLINGGAKHQAQQQYLNRGQQRQARPDANSNALLHALISGGGNNHASGYPMNGQPQKHHSNLRFGDNQNFQSFESNQPHFATQYKQQYQQSQQQHPHQQPQQLNSLHQNNAGAVNSFNKAQMQAQSAISMLPNSGDEFH
- binding [4]: binds weakly
- binding [5]: binds
- binding [6]: no binding (condition: embryos from 2-3 hr onwards)
- binding [7]: binds
- binding [3]: binds
- binding [8]: binds

B3: eIF4E (protein, UniProt P48598 1-259)
chain: T2 sequence
- binding [4]: binds
- binding [9]: binds
- binding [6]: binds
- binding [8]: binds
